{"source": "patent US8623416B2", "about": "(priority 2009, dated 2014)", "origin": "cited, not measured here", "tested_on": "HIV", "settings": "cited from earlier work"}
{"compound": "CC[C@H]1C(=O)Nc2ccc(F)cc2N1C(=O)OC(C)C", "note": "[GW420867X]", "values": [{"measurement": "greater activity than HBY097", "result": 25, "unit": "fold"}]}
